# Measured values published in the supplement of paper PMC10369915.
# The list shows a part of the results. No stated cut-off is given here; in the data, active = 3.2 or more and inactive = the rest. Most of these values are background signal.
# B1: CNGB3_Y200_E199K (peptide)
# chain: MPLTKYLKRIK
# B2: CKAP5_Y1860 (peptide)
# chain: EYKKKYSDADI
# B3: CKAP5_Y1860_YF (peptide)
# chain: EFKKKYSDADI
# B4: CLCA1_Y661_Y661H (peptide)
# chain: GVYSRHFTTYD
# B5: CNNM3_Y456_Y456C (peptide)
# chain: DESEDCRDTVV
# B6: CLDN7_Y195 (peptide)
# chain: ESKAGYRVPRS
# B7: CNGA3_Y168_W171C_YF (peptide)
# chain: PSSNLYFRCLT
# B8: CLCA1_Y665_YF (peptide)
# chain: RFFTTYDTNGR
# B9: CLRN1_Y171_I168N_YF (peptide)
# chain: EKNANYKEGTF
# B10: CHST8_Y251_R247H (peptide)
# chain: HHLSTYTKMLF
# B11: CLIC5_Y111 (peptide)
# chain: SMEGLYSSTQD
# B12: CHST8_Y251 (peptide)
# chain: HRLSTYTKMLF
# B13: CNGA2_Y395_R399Q (peptide)
# chain: DAVKHYMQFQK
# B14: CLDN14_Y233 (peptide)
# chain: ATHSGYRLNDY
# B15: CNGA3_Y168_P163L_YF (peptide)
# chain: LSSNLYFRWLT
# B16: CKB_Y173_K177R (peptide)
# chain: DLAGRYYALRS
# B17: CLIP2_Y972_R977P (peptide)
# chain: SDQRRYSLIDP
# B18: CLCN4_Y548_G544R (peptide)
# chain: TRGLEYIVPLM
# B19: CHST6_Y168_R166P (peptide)
# chain: EACPSYSHVVL
# B20: CKB_Y174_K177R_YF (peptide)
# chain: LAGRFYALRSM
# B21: CKB_Y174 (peptide)
# chain: LAGRYYALKSM
# B22: CLEC12A_Y242_K244Q_YF (peptide)
# chain: FFHCTYKQRMI
# B23: CNGA3_Y168_YF (peptide)
# chain: PSSNLYFRWLT
# B24: CKB_Y173 (peptide)
# chain: DLAGRYYALKS
# B25: CNGA3_Y169 (peptide)
# chain: SSNLYYRWLTA
# B26: CNGA3_Y168 (peptide)
# chain: PSSNLYYRWLT
# B27: CHST6_Y362 (peptide)
# chain: GYRPVYSEDEQ
# B28: CNOT3_Y746 (peptide)
# chain: TFEYRYLEDRD
# B29: CNGA3_Y169_YF (peptide)
# chain: SSNLFYRWLTA
# B30: CLCNKB_Y138 (peptide)
# chain: VVLEDYLDIKN
# B31: CLOCK_Y378_E380K (peptide)
# chain: HTVVSYAKVRA
# B32: CLCA1_Y661_YF (peptide)
# chain: GVFSRYFTTFD
# B33: CKAP5_Y1860_K1857Q (peptide)
# chain: EYQKKYSDADI
# B34: CLK1_Y56 (peptide)
# chain: MCDSHYLESRS
# B35: CNGB3_Y200 (peptide)
# chain: MPLTEYLKRIK
# B36: CHST6_Y362_Y358H (peptide)
# chain: GHRPVYSEDEQ
# B37: CHST6_Y362_Y358D (peptide)
# chain: GDRPVYSEDEQ
# Biological target: SHP2 C-SH2 domain E139D
# Experiment: enrichment score (SH2-bound / input frequency) (ratio); bacterial display of known human phosphotyrosine sites (pTyr-Var adds point mutants) read by sequencing; higher = stronger binding; tyrosines were phosphorylated by kinases first
# Conditions: peptide library: pTyr-Var
# 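Further: displayed peptides selected on beads carrying the immobilized SH2 domain, with library peptides lacking any tyrosine serving as negative controls.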
row,Binder,enrichment score
1,B1,inactive: 0.816
2,B2,inactive: 0.545
3,B3,inactive: 0.627
4,B4,inactive: 0.915
5,B5,inactive: 0.455
6,B6,inactive: 0.616
7,B7,inactive: 0.605
8,B8,inactive: 1.14
9,B9,inactive: 0.564
10,B10,inactive: 2.93
11,B11,inactive: 0.778
12,B12,active: 3.21
13,B13,inactive: 0.881
14,B14,inactive: 0.756
15,B15,inactive: 1.84
16,B16,inactive: 0.868
17,B17,inactive: 0.822
18,B18,inactive: 1.14
19,B19,inactive: 0.654

row,Binder,enrichment score
1,B20,inactive: 2.21
2,B21,inactive: 1.86
3,B22,inactive: 2.33
4,B23,inactive: 0.751
5,B24,inactive: 0.788
6,B25,inactive: 0.721
7,B26,inactive: 1.36
8,B27,inactive: 0.788
9,B28,inactive: 0.816
10,B29,inactive: 0.616
11,B30,inactive: 0.633
12,B31,inactive: 1.72
13,B32,inactive: 0.733
14,B33,inactive: 0.616
15,B34,inactive: 0.742
16,B35,inactive: 1.03
17,B36,inactive: 0.632
18,B37,inactive: 0.616

# Biological target: SHP2 C-SH2 domain wild-type
# Experiment: as above
# Conditions: peptide library: pTyr-Var
row,Binder,enrichment score
1,B1,inactive: 0.669
2,B2,inactive: 0.562
3,B3,inactive: 0.538
4,B4,inactive: 0.687
5,B5,inactive: 0.351
6,B6,inactive: 0.629
7,B7,inactive: 0.579
8,B8,inactive: 0.855
9,B9,inactive: 0.513
10,B10,active: 3.85
11,B11,inactive: 1.02
12,B12,active: 3.24
13,B13,inactive: 0.662
14,B14,inactive: 0.824
15,B15,inactive: 2.56
16,B16,inactive: 0.881
17,B17,inactive: 1.54
18,B18,inactive: 1.13
19,B19,inactive: 0.901

row,Binder,enrichment score
1,B20,inactive: 2.45
2,B21,inactive: 1.44
3,B22,inactive: 2.73
4,B23,inactive: 0.69
5,B24,inactive: 0.804
6,B25,inactive: 0.73
7,B26,inactive: 0.878
8,B27,inactive: 0.595
9,B28,inactive: 0.911
10,B29,inactive: 0.73
11,B30,inactive: 0.769
12,B31,active: 3.38
13,B32,inactive: 0.733
14,B33,inactive: 0.538
15,B34,inactive: 0.745
16,B35,inactive: 0.762
17,B36,inactive: 0.632
18,B37,inactive: 0.375

# Biological target: SHP2 N-SH2 domain L43F
# Experiment: as above
# Conditions: peptide library: pTyr-Var
row,Binder,enrichment score
1,B1,inactive: 0.621
2,B2,inactive: 0.654
3,B3,inactive: 0.537
4,B4,inactive: 0.615
5,B5,inactive: 0.422
6,B6,inactive: 0.728
7,B7,inactive: 0.534
8,B8,inactive: 1.19
9,B9,inactive: 0.578
10,B10,active: 3.69
11,B11,inactive: 1.02
12,B12,active: 3.35
13,B13,inactive: 0.767
14,B14,inactive: 0.691
15,B15,inactive: 1.74
16,B16,inactive: 0.688
17,B17,inactive: 0.845
18,B18,active: 3.8
19,B19,inactive: 0.693

row,Binder,enrichment score
1,B20,inactive: 1.91
2,B21,inactive: 1.72
3,B22,inactive: 2.63
4,B23,inactive: 0.74
5,B24,inactive: 1.08
6,B25,inactive: 0.514
7,B26,inactive: 0.947
8,B27,inactive: 0.832
9,B28,inactive: 0.824
10,B29,inactive: 0.669
11,B30,inactive: 0.574
12,B31,inactive: 1.77
13,B32,inactive: 0.65
14,B33,inactive: 0.53
15,B34,inactive: 0.91
16,B35,inactive: 0.796
17,B36,inactive: 0.679
18,B37,inactive: 0.349

# Biological target: SHP2 N-SH2 domain T42A
# Experiment: as above
# Conditions: peptide library: pTyr-Var
row,Binder,enrichment score
1,B1,inactive: 0.715
2,B2,inactive: 0.501
3,B3,inactive: 0.427
4,B4,inactive: 0.763
5,B5,inactive: 0.291
6,B6,inactive: 0.456
7,B7,inactive: 0.537
8,B8,inactive: 0.929
9,B9,inactive: 0.484
10,B10,active: 8.43
11,B11,inactive: 0.673
12,B12,active: 5.06
13,B13,inactive: 0.844
14,B14,inactive: 0.639
15,B15,inactive: 2.07
16,B16,inactive: 0.554
17,B17,inactive: 1.27
18,B18,active: 4.35
19,B19,inactive: 1.17

row,Binder,enrichment score
1,B20,inactive: 2.04
2,B21,inactive: 1.29
3,B22,inactive: 2.21
4,B23,inactive: 0.873
5,B24,inactive: 0.666
6,B25,inactive: 0.574
7,B26,inactive: 1.17
8,B27,inactive: 0.422
9,B28,inactive: 0.625
10,B29,inactive: 0.572
11,B30,inactive: 0.532
12,B31,active: 3.62
13,B32,inactive: 0.829
14,B33,inactive: 0.368
15,B34,inactive: 0.648
16,B35,inactive: 0.619
17,B36,inactive: 0.606
18,B37,inactive: 0.493

# Biological target: SHP2 N-SH2 domain T52S
# Experiment: as above
# Conditions: peptide library: pTyr-Var
row,Binder,enrichment score
1,B1,inactive: 0.705
2,B2,inactive: 0.645
3,B3,inactive: 0.482
4,B4,inactive: 0.758
5,B5,inactive: 0.383
6,B6,inactive: 0.554
7,B7,inactive: 0.426
8,B8,inactive: 1.07
9,B9,inactive: 0.559
10,B10,active: 4.93
11,B11,inactive: 1.14
12,B12,active: 3.66
13,B13,inactive: 0.64
14,B14,inactive: 0.744
15,B15,inactive: 1.64
16,B16,inactive: 0.912
17,B17,inactive: 0.752
18,B18,active: 3.98
19,B19,inactive: 0.724

row,Binder,enrichment score
1,B20,inactive: 2.24
2,B21,inactive: 1.63
3,B22,inactive: 2.59
4,B23,inactive: 0.756
5,B24,inactive: 0.961
6,B25,inactive: 0.66
7,B26,inactive: 1.35
8,B27,inactive: 0.587
9,B28,inactive: 0.796
10,B29,inactive: 0.801
11,B30,inactive: 0.714
12,B31,inactive: 1.4
13,B32,inactive: 0.654
14,B33,inactive: 0.577
15,B34,inactive: 0.617
16,B35,inactive: 0.843
17,B36,inactive: 0.645
18,B37,inactive: 0.398

# Biological target: SHP2 N-SH2 domain wild-type
# Experiment: as above
# Conditions: peptide library: pTyr-Var
row,Binder,enrichment score
1,B1,inactive: 0.777
2,B2,inactive: 0.751
3,B3,inactive: 0.54
4,B4,inactive: 0.8
5,B5,inactive: 0.36
6,B6,inactive: 0.603
7,B7,inactive: 0.799
8,B8,inactive: 1.17
9,B9,inactive: 0.604
10,B10,inactive: 2.56
11,B11,inactive: 0.913
12,B12,active: 3.32
13,B13,inactive: 0.726
14,B14,inactive: 0.724
15,B15,inactive: 2.25
16,B16,inactive: 0.81
17,B17,inactive: 0.862
18,B18,inactive: 1.41
19,B19,inactive: 0.843

row,Binder,enrichment score
1,B20,inactive: 1.7
2,B21,inactive: 1.26
3,B22,active: 3.21
4,B23,inactive: 0.874
5,B24,inactive: 0.732
6,B25,inactive: 0.53
7,B26,inactive: 1.07
8,B27,inactive: 0.674
9,B28,inactive: 0.909
10,B29,inactive: 0.773
11,B30,inactive: 0.652
12,B31,inactive: 1.14
13,B32,inactive: 0.624
14,B33,inactive: 0.888
15,B34,inactive: 0.69
16,B35,inactive: 0.905
17,B36,inactive: 0.828
18,B37,inactive: 0.601
